Source: patent US10501518B2 (priority 2013, dated 2019)
Part of at least one peptide drawing is inferred or uncertain, most often the ends. Starred links: 1 amine or outer side, 2 acyl side, 3 side chain; linkers in the order of their positions; H or OH if unused. Non-standard residues stand in square brackets, D forms with d. Residues, ends and D or L forms follow the SMILES beside them. *: point of attachment. β3hW = N[C@H](CC(=O)O)Cc1c[nH]c2ccccc12; X12 = O=C([C@H]1CCC[C@@H]1N[*:1])[*:2]; ACPC(1S,2S) = N[C@H]1CCC[C@@H]1C(=O)*; hArg = N=C(N)NCCCC[C@H](N)C(=O)O; β3hE = N[C@@H](CCC(=O)O)CC(=O)O; β3hF = N[C@H](CC(=O)O)Cc1ccccc1; β3hK = NCCCC[C@H](N)CC(=O)O; β3hM = CSCC[C@H](N)CC(=O)O; β3hD = NC(CC(=O)O)CC(=O)O; Aib = CC(C)(N)C(=O)O

Experiments:
Assay type in all cases: cell-based
PTHR = molecular target: T1, PTHR (Homo sapiens, UniProt Q03431); assay: cAMP induction potency, N-terminal modifications and cyclic constraints (Tables 9, 10, 13)
T1 construct: expressed in transfected cells
T1 sequence (Q03431 27-593): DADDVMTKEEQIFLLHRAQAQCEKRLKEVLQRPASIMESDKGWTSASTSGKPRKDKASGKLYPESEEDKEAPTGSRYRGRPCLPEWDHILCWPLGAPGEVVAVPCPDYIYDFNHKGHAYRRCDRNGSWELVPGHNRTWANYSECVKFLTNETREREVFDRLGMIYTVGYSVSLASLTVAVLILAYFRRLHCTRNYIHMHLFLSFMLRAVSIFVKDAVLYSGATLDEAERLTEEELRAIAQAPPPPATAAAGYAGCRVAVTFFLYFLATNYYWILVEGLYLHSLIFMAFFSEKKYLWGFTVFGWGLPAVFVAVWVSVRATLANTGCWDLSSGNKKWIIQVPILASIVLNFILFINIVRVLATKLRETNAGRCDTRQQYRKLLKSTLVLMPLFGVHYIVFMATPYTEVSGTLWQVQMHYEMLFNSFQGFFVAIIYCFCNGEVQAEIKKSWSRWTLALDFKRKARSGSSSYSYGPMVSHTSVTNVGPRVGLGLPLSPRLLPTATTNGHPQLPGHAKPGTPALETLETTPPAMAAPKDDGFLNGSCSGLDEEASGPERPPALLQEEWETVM

WT human PTHR-1 = molecular target: T2, WT human PTHR-1 (Homo sapiens, UniProt Q03431); assay: cAMP GloSensor dose-response in GP-2.3 cells expressing human PTHR-1; details: Table 8; EC50 relative to PTH(1-34)
T2 construct: bioactivity of the resulting compound in full-length hPTHR-1 and a truncated version; expressed in transfected cells
T2 sequence (Q03431 27-593): T1 sequence (Q03431 27-593)
Method: FIGS. 8A, 8B, and 8C constitute a series of graphs depicting cAMP responses in GP-2.3 cells expressing wild-type human parathyroid hormone receptor 1 (PTHR-1-WT). […] Data are means (±SEM) of n>4 experiments, each performed in duplicate.
For cAMP dose-response assays, monolayers of confluent HEK 293 cells were pre-incubated with buffer containing d-luciferin (0.5 mM) in 96 well plates at room temperature until a stable baseline level of luminescence was established (30 min). Varying concentrations of agonist were then added, and the time course of luminescence response was recorded using a Perkin Elmer plate reader following α/β-peptide addition.

delNT PTHR1 = molecular target: T3, delNT PTHR1 (Homo sapiens, UniProt Q03431, DEL24-181); assay: cAMP-inducing potency at truncated receptor delNT PTHR1; details: Table 8; EC50 relative to PTH(1-34)
T3 construct: expressed in transfected cells
T3 sequence (Q03431 with tags, fused parts or gaps DEL24-181): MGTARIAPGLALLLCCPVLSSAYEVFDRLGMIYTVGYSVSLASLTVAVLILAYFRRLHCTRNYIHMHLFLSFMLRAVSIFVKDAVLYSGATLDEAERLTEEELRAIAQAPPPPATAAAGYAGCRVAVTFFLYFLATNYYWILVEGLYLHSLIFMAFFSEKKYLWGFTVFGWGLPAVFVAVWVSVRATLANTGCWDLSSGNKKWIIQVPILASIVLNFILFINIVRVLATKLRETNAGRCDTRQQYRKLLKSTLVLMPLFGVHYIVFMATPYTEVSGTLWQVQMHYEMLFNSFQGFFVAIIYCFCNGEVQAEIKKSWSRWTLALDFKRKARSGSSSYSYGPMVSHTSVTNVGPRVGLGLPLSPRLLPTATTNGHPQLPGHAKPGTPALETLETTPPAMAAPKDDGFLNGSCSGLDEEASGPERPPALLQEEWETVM

Row | Fold PTH (PTHR; Table 10) | other results | SMILES
1 |  | Fold PTH (PTHR; Table 9): 1.7 | CC[C@H](C)[C@H](NC(=O)[C@H](CCC(=O)O)NC(=O)[C@H](CO)NC(=O)[C@@H](NC(=O)[C@H]1CCC[C@@H]1N)C(C)C)C(=O)N[C@@H](CCC(N)=O)C(=O)N[C@H]1CCC[C@@H]1C(=O)N[C@@H](CCSC)C(=O)N[C@@H](Cc1c[nH]cn1)C(=O)N[C@@H](CC(N)=O)C(=O)N[C@@H](CC(C)C)C(=O)NCC(=O)N[C@@H](CCCCN)C(=O)N[C@@H](Cc1c[nH]cn1)C(=O)N[C@@H](CC(C)C)C(=O)N[C@@H](CC(N)=O)C(=O)N[C@@H](CO)C(=O)N[C@@H](CCSC)C(=O)N[C@@H](CCC(=O)O)C(=O)N[C@@H](CCCNC(=N)N)C(=O)N[C@H](C(=O)N[C@@H](CCC(=O)O)C(=O)N[C@@H](Cc1c[nH]c2ccccc12)C(=O)N[C@@H](CC(C)C)C(=O)N[C@@H](CCCNC(=N)N)C(=O)N[C@@H](CCCCN)C(=O)N[C@@H](CCCCN)C(=O)N[C@@H](CC(C)C)C(=O)N[C@@H](CCC(N)=O)C(=O)N[C@@H](CC(=O)O)C(=O)N[C@H](C(=O)N[C@@H](Cc1c[nH]cn1)C(=O)N[C@@H](CC(N)=O)C(=O)N[C@@H](Cc1ccccc1)C(N)=O)C(C)C)C(C)C [ACPC(1,7), XVSEIQXMHNLGKHLNSMERVEWLRKKLQDVHNF-NH2] ({ACPC(1S,2S)}-VSEIQ[X12]MHNLGKHLNSMERVEWLRKKLQDVHNF-NH2; N-terminus assumed)
2 |  | Fold PTH, nM (hPTHR1) (WT human PTHR-1): 106.8; Fold PTH, nM (deINT PTHR1) (delNT PTHR1): 480 | CC[C@H](C)[C@H](NC(=O)[C@H](CCC(=O)O)NC(=O)[C@H](CO)NC(=O)[C@@H](NC(=O)[C@@H](N)CO)C(C)C)C(=O)N[C@@H](CCC(N)=O)C(=O)N[C@@H](CC(C)C)C(=O)N[C@H]1CCC[C@@H]1C(=O)N[C@@H](Cc1c[nH]cn1)C(=O)N[C@@H](CC(N)=O)C(=O)N[C@@H](CC(C)C)C(=O)NCC(=O)N[C@@H](CCCCN)C(=O)N[C@@H](Cc1c[nH]cn1)C(=O)N[C@@H](CC(C)C)C(=O)N[C@@H](CC(N)=O)C(=O)N[C@@H](CO)C(=O)N[C@@H](CCSC)C(=O)N[C@@H](CCC(=O)O)C(=O)N[C@@H](CCCNC(=N)N)C(=O)N[C@H](C(=O)N[C@@H](CCC(=O)O)C(=O)N[C@@H](Cc1c[nH]c2ccccc12)C(=O)N[C@@H](CC(C)C)C(=O)N[C@@H](CCCNC(=N)N)C(=O)N[C@@H](CCCCN)C(=O)N[C@@H](CCCCN)C(=O)N[C@@H](CC(C)C)C(=O)N[C@@H](CCC(N)=O)C(=O)N[C@@H](CC(=O)O)C(=O)N[C@H](C(=O)N[C@@H](Cc1c[nH]cn1)C(=O)N[C@@H](CC(N)=O)C(=O)N[C@@H](Cc1ccccc1)C(N)=O)C(C)C)C(C)C [ACPC(8)] (H-SVSEIQL[X12]HNLGKHLNSMERVEWLRKKLQDVHNF-NH2; N-terminus assumed)
3 | 4.9 |  | CSCC[C@H](NC(=O)[C@H](CO)NC(=O)[C@H](CC(N)=O)NC(=O)[C@H](CC(C)C)NC(=O)[C@H](Cc1c[nH]c2ccccc12)NC(=O)[C@H](CCCCN)NC(=O)[C@H](C)NC(=O)[C@H](CCCCNC(=N)N)NC(=O)[C@H](CCC(N)=O)NC(=O)[C@H](Cc1c[nH]cn1)NC(=O)[C@H](CCSC)NC(=O)[C@H]1CCC[C@@H]1NC(=O)[C@H](CCC(N)=O)NC(=O)[C@H]1CCC[C@@H]1NC(=O)[C@H](CCC(=O)O)NC(=O)C(C)(C)NC(=O)[C@@H](NC(=O)[C@H]1CCC[C@@H]1N)C(C)C)C(=O)N[C@@H](CCCNC(=N)N)C(=O)N[C@@H](CCCNC(=N)N)C(=O)N[C@H](C(=O)N[C@@H](CCC(=O)O)C(=O)N[C@@H](Cc1c[nH]c2ccccc12)C(=O)N[C@@H](CC(C)C)C(=O)N[C@@H](CCCNC(=N)N)C(=O)N[C@@H](CCCCN)C(=O)N[C@@H](CCCCN)C(=O)N[C@@H](CC(C)C)C(=O)N[C@@H](CCC(N)=O)C(=O)N[C@@H](CC(=O)O)C(=O)N[C@H](C(=O)N[C@@H](Cc1c[nH]cn1)C(=O)N[C@@H](CC(N)=O)C(=O)N[C@@H](Cc1ccccc1)C(N)=O)C(C)C)C(C)C [M-ACPC(1,5,7)] ({ACPC(1S,2S)}-V[Aib]E[X12]Q[X12]MHQ[hArg]AKWLNSMRRVEWLRKKLQDVHNF-NH2)
4 | 6.3 |  | CC[C@H](C)[C@H](NC(=O)[C@H](CCC(=O)O)NC(=O)C(C)(C)NC(=O)[C@@H](NC(=O)[C@H]1CCC[C@@H]1N)C(C)C)C(=O)N[C@@H](CCC(N)=O)C(=O)N[C@H]1CCC[C@@H]1C(=O)N[C@@H](CCSC)C(=O)N[C@@H](Cc1c[nH]cn1)C(=O)N[C@@H](CCC(N)=O)C(=O)N[C@@H](CCCCNC(=N)N)C(=O)N[C@@H](C)C(=O)N[C@@H](CCCCN)C(=O)N[C@@H](Cc1c[nH]c2ccccc12)C(=O)N[C@@H](CC(C)C)C(=O)N[C@@H](CC(N)=O)C(=O)N[C@@H](CO)C(=O)N[C@@H](CCSC)C(=O)N[C@@H](CCCNC(=N)N)C(=O)N[C@@H](CCCNC(=N)N)C(=O)N[C@H](C(=O)N[C@@H](CCC(=O)O)C(=O)N[C@@H](Cc1c[nH]c2ccccc12)C(=O)N[C@@H](CC(C)C)C(=O)N[C@@H](CCCNC(=N)N)C(=O)N[C@@H](CCCCN)C(=O)N[C@@H](CCCCN)C(=O)N[C@@H](CC(C)C)C(=O)N[C@@H](CCC(N)=O)C(=O)N[C@@H](CC(=O)O)C(=O)N[C@H](C(=O)N[C@@H](Cc1c[nH]cn1)C(=O)N[C@@H](CC(N)=O)C(=O)N[C@@H](Cc1ccccc1)C(N)=O)C(C)C)C(C)C [M-ACPC(1,7)] ({ACPC(1S,2S)}-V[Aib]EIQ[X12]MHQ[hArg]AKWLNSMRRVEWLRKKLQDVHNF-NH2)
5 | 10.2 |  | CC[C@H](C)[C@H](NC(=O)[C@H](CCC(=O)O)NC(=O)C(C)(C)NC(=O)[C@@H](NC(=O)[C@H]1CCC[C@@H]1N)C(C)C)C(=O)N[C@@H](CCC(N)=O)C(=O)N[C@H]1CCC[C@@H]1C(=O)N[C@@H](CCSC)C(=O)N[C@@H](Cc1c[nH]cn1)C(=O)N[C@@H](CCC(N)=O)C(=O)N[C@@H](CCCCNC(=N)N)C(=O)N[C@@H](C)C(=O)N[C@@H](CCCCN)C(=O)N[C@H](CC(=O)N[C@@H](CC(C)C)C(=O)N[C@@H](CC(N)=O)C(=O)N[C@@H](CO)C(=O)N[C@@H](CCSC)CC(=O)N[C@@H](CCCNC(=N)N)C(=O)N[C@@H](CCCNC(=N)N)C(=O)N[C@H](C(=O)N[C@@H](CCC(=O)O)CC(=O)N[C@@H](Cc1c[nH]c2ccccc12)C(=O)N[C@@H](CC(C)C)C(=O)N[C@@H](CCCNC(=N)N)C(=O)N[C@@H](CCCCN)CC(=O)N[C@@H](CCCCN)C(=O)N[C@@H](CC(C)C)C(=O)N[C@@H](CCC(N)=O)C(=O)N[C@@H](CC(=O)O)CC(=O)N[C@H](C(=O)N[C@@H](Cc1c[nH]cn1)C(=O)N[C@@H](CC(N)=O)C(=O)N[C@H](CC(N)=O)Cc1ccccc1)C(C)C)C(C)C)Cc1c[nH]c2ccccc12 [M-D6_ACPC(1,7)] ({ACPC(1S,2S)}-V[Aib]EIQ[X12]MHQ[hArg]AK[β3hW]LNS[β3hM]RRV[β3hE]WLR[β3hK]KLQ[β3hD]VHN[β3hF]-NH2; N-terminus assumed)
